SMILES strings stand for the structures. In all, about 310,000 compounds went through this assay and about 2,200 (0.71%) showed an effect of 50% or more. Effects have a minus sign here. The list shows a part of the results.

The target in this assay is human ether-à-go-go-related gene (hERG) potassium channel (human, UniProt Q12809). Nature of the assay: primary screen, population patch clamp on CHO cells stably expressing hERG.
human ether-à-go-go-related gene (hERG) potassium channel, sequence (Q12809 whole entry, looked up): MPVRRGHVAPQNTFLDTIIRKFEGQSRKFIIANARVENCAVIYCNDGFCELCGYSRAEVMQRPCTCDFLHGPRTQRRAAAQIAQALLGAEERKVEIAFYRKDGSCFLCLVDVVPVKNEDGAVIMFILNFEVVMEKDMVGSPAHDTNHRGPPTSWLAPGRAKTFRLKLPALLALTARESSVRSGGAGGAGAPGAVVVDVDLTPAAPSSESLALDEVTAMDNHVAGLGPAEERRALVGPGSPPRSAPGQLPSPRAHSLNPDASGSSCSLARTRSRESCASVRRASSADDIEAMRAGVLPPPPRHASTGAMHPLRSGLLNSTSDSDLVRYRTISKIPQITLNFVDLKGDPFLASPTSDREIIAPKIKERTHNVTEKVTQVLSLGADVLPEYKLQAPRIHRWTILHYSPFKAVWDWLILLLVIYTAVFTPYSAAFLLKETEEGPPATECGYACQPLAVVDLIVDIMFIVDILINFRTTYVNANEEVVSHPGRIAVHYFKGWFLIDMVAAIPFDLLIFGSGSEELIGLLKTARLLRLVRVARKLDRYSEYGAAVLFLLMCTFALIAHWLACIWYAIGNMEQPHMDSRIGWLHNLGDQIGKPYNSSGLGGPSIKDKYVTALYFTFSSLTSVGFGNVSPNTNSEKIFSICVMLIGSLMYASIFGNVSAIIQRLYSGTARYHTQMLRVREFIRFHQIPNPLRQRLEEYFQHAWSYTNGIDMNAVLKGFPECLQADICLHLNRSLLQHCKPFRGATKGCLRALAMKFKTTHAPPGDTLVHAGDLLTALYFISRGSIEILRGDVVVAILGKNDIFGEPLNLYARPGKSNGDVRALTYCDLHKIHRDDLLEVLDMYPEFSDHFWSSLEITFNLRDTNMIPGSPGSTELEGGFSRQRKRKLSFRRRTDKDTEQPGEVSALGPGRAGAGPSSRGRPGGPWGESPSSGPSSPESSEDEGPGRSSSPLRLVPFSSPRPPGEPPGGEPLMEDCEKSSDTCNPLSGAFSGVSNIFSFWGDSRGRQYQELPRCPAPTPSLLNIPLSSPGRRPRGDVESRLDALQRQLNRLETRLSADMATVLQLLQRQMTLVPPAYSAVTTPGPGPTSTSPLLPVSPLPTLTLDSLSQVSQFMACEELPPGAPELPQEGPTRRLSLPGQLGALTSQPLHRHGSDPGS
Take `CCc1nc2ccccc2c(=O)n1NC(=O)c1c(O)c2cccc3c2n(c1=O)CCC3`: the “hERG current change (%, negative = inhibition) at 1uM” value is on record as 15.9%. For `O=P(Oc1ccccc1)(Oc1ccccc1)C(O)c1ccc(Cl)cc1` (stereo not drawn) the value was 7.7%. Regarding `Cc1cc(S(=O)(=O)NCc2cccnc2)ccc1-n1cnnn1`, the “hERG current change (%, negative = inhibition) at 1uM” value is listed as -10.8%. For `COc1ccc(NP(=O)(Oc2ccc(Cl)cc2)Oc2ccc(Cl)cc2)cc1OC` the value was -7.48%; for `CCOC(=O)c1cc(=O)[nH]c2ccccc12`, 7.68%. Consider `CC(=O)c1cccc(NC(=O)c2cc(-n3cnnc3)ccc2Cl)c1`, for which the “hERG current change (%, negative = inhibition) at 1uM” value worked out at 4.24%. In the case of `Cc1onc(-c2ccccc2Cl)c1C(=O)OCC(=O)Nc1cccc(S(=O)(=O)N2CCOCC2)c1`, the “hERG current change (%, negative = inhibition) at 1uM” value is listed as 8.29%. Take `Oc1ccc(/C=N/NP(=S)(c2ccccc2)c2ccccc2)c(O)c1O`: the “hERG current change (%, negative = inhibition) at 1uM” value is given as 5%. Under `CCc1nnc(NC(=O)CSc2nnnn2C)s1` stands 0.657%; under `O=C(NNC(=S)Nc1ccc(Br)cc1)c1ccccc1`, 12.2%. Consider `O=C(O)c1cccc(C(=O)c2cccc(C(=O)O)c2)c1`, for which the “hERG current change (%, negative = inhibition) at 1uM” value is listed as 16.6%.

With `CC1CCCCN1C(=O)CSc1nnc(Cc2ccccc2)n1C` (stereo not drawn), the “hERG current change (%, negative = inhibition) at 1uM” value was determined as 19.9%. On to `O=C(NCCCN1CCCC1)c1cc(Sc2ccc(F)cc2)nc2ccccc12`, for which the “hERG current change (%, negative = inhibition) at 1uM” value was -9.42%. Under `Cc1ccccc1NC(=O)C(c1ccccc1)C1CCCC1` (stereo not drawn) stands 9.31%; under `COc1ccc(NC(=O)CN(C)C(=O)CN2C(=O)C3CCCCC3C2=O)cc1` (stereo not drawn), 0.703%; under `CCc1nc(SCC(=O)Nc2nnc(CC)s2)c2c(=O)n(C)c(=O)n(C)c2n1`, 7.95%. `CCOc1ccc2nc(NC(=O)CS(=O)(=O)c3ccccc3)sc2c1`: the “hERG current change (%, negative = inhibition) at 1uM” value came out at 11.1%.

Regarding `CC(C)[C@H](NC(=O)c1ccccc1)C(=O)OCC(=O)NCCC1=CCCCC1`, the “hERG current change (%, negative = inhibition) at 1uM” value is 15.6%. For `Cn1cc(S(=O)(=O)N2CCc3ccccc32)cc1C(=O)NC(C)(C)C` the value was 7.25%. For `CC1=C(C(=O)OCC2CCCCC2)C(c2ccc(F)cc2)NC(=O)N1` (stereo not drawn) the value was 15.6%; for `COc1ccc(C2=[N+](C)CCn3cccc32)c(OC)c1.[I-]`, 8.78%. For `CCOc1ccc2c(c1)C(N(CCN1CCOCC1)C(=O)Nc1ccccc1)CC(C)(C)O2` (stereo not drawn) the value was 7.9%. Consider `Cc1ccc(-c2nnn(CC(=O)NC3CC4CCC3C4)n2)cc1` (stereo not drawn), for which the “hERG current change (%, negative = inhibition) at 1uM” value was found to be 4.49%. Turning to `CC(C)(C)c1ccc(OCC(=O)NCc2ccco2)c(Br)c1`, the “hERG current change (%, negative = inhibition) at 1uM” value came out at 2.18%. Under `CCN1CCCc2cc(CN(CCN3CCOCC3)C(=S)Nc3ccc(OC)c(OC)c3)ccc21` stands 8.39%; under `Cc1cccc(NNC(=O)c2c(F)cccc2Cl)c1`, 9.88%; under `O=C1N(Nc2ccccc2)C(c2ccc(Br)cc2)C12CCCCC2` (stereo not drawn), 15.7%. `COCCN(C(=O)CSc1nc(-c2ccccc2)cn1N)c1c(N)n(Cc2ccccc2)c(=O)[nH]c1=O`: the “hERG current change (%, negative = inhibition) at 1uM” value stood at 3.04%. For `Cc1cc(Nc2ccc(N3CCOCC3)cc2)c2cccc(C)c2n1.Cl` the value was -17.8%. Turning to `COc1ccc(Cl)cc1NC(=O)CS(=O)(=O)c1cccc2nsnc12`, the “hERG current change (%, negative = inhibition) at 1uM” value is given as -0.237%. For `COc1ccc(OC(=O)Cc2cccc3ccccc23)cc1` the value was 13.2%; for `COc1cccc(OC)c1NC(=O)C1CCCN1C(=O)NCc1ccccc1` (stereo not drawn), 3.69%; for `Cc1cc(C(=O)N/N=C/c2cccn2C)n[nH]1`, -1.85%. On to `CC(C)OC(=O)c1nnc(Cc2ccc(F)cc2)o1`, for which the “hERG current change (%, negative = inhibition) at 1uM” value was found to be 5.64%. For `CCOc1ccc(C(=O)COC(=O)c2nn(CC)c(=O)c3ccccc23)cc1`, the “hERG current change (%, negative = inhibition) at 1uM” value is reported as -5.23%. On to `CCCCCCCC(=O)NC1=NC(=O)C(C)(C)S1`, for which the “hERG current change (%, negative = inhibition) at 1uM” value was found to be 13.4%. For `O=C(NCc1ccccc1)Nc1cccn(Cc2cccc(F)c2)c1=O`, the “hERG current change (%, negative = inhibition) at 1uM” value is 11.8%. As for `O=C(O)c1ccccc1-c1nc2ccccc2[nH]1`, the “hERG current change (%, negative = inhibition) at 1uM” value turned out to be 15.2%.

For the compound `Cc1ccnc(NC(=O)CCC(=O)N(CC(=O)NCc2ccccc2)Cc2ccc(F)cc2)c1`, the “hERG current change (%, negative = inhibition) at 1uM” value is -4.64%.

Consider `COc1ccc(CCNC(=O)COC(=O)COc2ccc(Cl)cc2)cc1OC`, for which the “hERG current change (%, negative = inhibition) at 1uM” value was determined as 12.8%. As for `CCOc1ccc(C(=O)OC(C)CN2CCN(C)CC2)cc1.Cl` (stereo not drawn), the “hERG current change (%, negative = inhibition) at 1uM” value worked out at 1.94%.

For `CC(=O)Nc1ccc(C)c([N+](=O)[O-])c1`, the “hERG current change (%, negative = inhibition) at 1uM” value is 13.3%. For `Cc1nnc(SCC(=O)Nc2cccnc2Cl)s1` the value was -1.11%; for `CCCc1nn(C)c2c(=O)[nH]c(-c3ccccc3OCC)nc12`, 14.3%; for `CC(=O)Nc1ccc(NC(=O)CSc2nnc(C3CC3)n2-c2ccccc2)cc1`, 2.39%. As to `COc1ccc(CN(C)C(=O)c2cccc(S(=O)(=O)N3CCN(c4ccccc4)CC3)c2)c(OC)c1OC`, the “hERG current change (%, negative = inhibition) at 1uM” value is 10.8%.

For the compound `CC(C)(C)c1ccc(OC(=O)Nc2ccc(O)c(C(=O)O)c2)cc1`, the “hERG current change (%, negative = inhibition) at 1uM” value is 10.1%.

Consider `Cc1ccc2nc(NC(=O)c3ccccc3F)sc2c1`, for which the “hERG current change (%, negative = inhibition) at 1uM” value is 17%. Take `NC(=O)COC(=O)c1ccc(S(=O)(=O)N2CCCCCC2)cc1`: the “hERG current change (%, negative = inhibition) at 1uM” value was found to be 11.1%.

Consider `C[C@]12CCC(OC(=O)CCC(=O)O)CC1=CCC1C2CC[C@]2(C)C(=O)CCC12` (stereo partly drawn), for which the “hERG current change (%, negative = inhibition) at 1uM” value was 13.6%. For `Cn1c(CNC(=O)C(Cc2ccccc2)NC(=O)c2ccccc2)cc(=O)n(C)c1=O` (stereo not drawn), the “hERG current change (%, negative = inhibition) at 1uM” value is listed as 3.09%. Consider `COC(=O)c1cc(S(=O)(=O)N2CCN(c3cccc(C)c3C)CC2)c[nH]1`, for which the “hERG current change (%, negative = inhibition) at 1uM” value is reported as 12.2%. For `CC(=O)Nc1ccc(C(=O)NCC2(N3CCCCC3)CCCCC2)cc1` the value was -14.7%. Consider `Cc1ccc(NC(=O)c2nc[nH]c2C(=O)NCCCCCNC(=O)OC(C)(C)C)cc1`, for which the “hERG current change (%, negative = inhibition) at 1uM” value came to 10.7%. In the case of `CCCCCCc1c(C)[nH]c2nc3ccccc3n2c1=O`, the “hERG current change (%, negative = inhibition) at 1uM” value turned out to be 11.6%. On to `CCc1ccc(Nc2nnc(SCC(=O)Nc3cccnc3Cl)s2)cc1`, for which the “hERG current change (%, negative = inhibition) at 1uM” value worked out at 3.22%.

On to `CCOC(=O)c1c(CSc2ccccc2)n(C)c2cc(Br)c(O)c(CN(C)C)c12`, for which the “hERG current change (%, negative = inhibition) at 1uM” value is -3.17%.

These data come from publication PMC4336329 (PLoS ONE, 2015).
